Measured values as given in the supplement of paper PMC12217912.
The list shows a part of the results. Sequences were assembled here from the parent chain. Inactive controls read about 0.05.

B1: TEV protease; numbered along this chain (parent)
chain: MGESLFKGPRDYNPISSSICHLTNESDGHTTSLYGIGFGPFIITNKHLFRRNNGTLVVQSLHGVFKVKDTTTLQQHLVDGRDMIIIRMPKDFPPFPQKLKFREPQREERICLVTTNFQTKSMSSMVSDTSCTFPSGDGIFWKHWIQTKDGQCGSPLVSTRDGFIVGIHSASNFTNTNNYFTSVPKNFMELLTNQEAQQWVSGWRLNADSVLWGGHKVFMVKPEEPFQPVKEATQL

Variants of: B1
Test: raw area under fraction-flipped curve 0-4 h after induction (AUC4h, not background-subtracted), DNA-recorder readout of cleavage of the substrate (dimensionless); higher = more cleavage of the substrate by the protease variant
Settings: temperature: 34 °C; time window: 0-4 h after rhamnose induction
Experimental: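 In vivo DNA recorder in E. coli TOP10(DE3) ΔrhaA at 34 °C. Each TEVp single-site mutant (parent TEVp 0) is paired with a single-site variant of the 7-mer TEVs (canonical ENLYFQ|S). The substrate sits between flexible linkers in a Bxb1-sfGFP-TEVs-SsrA fusion, so cleavage stabilises Bxb1 and speeds flipping of a recombination array, read by NGS. The value is the raw area under the fraction-flipped curve over 0-4 h after rhamnose induction (AUC4h), with ≥20 reads per time point. It is not background-subtracted; inactive controls average about 0.047.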
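Note: Bxb1 expression induced with 0.2% (w/v) L-rhamnose at OD600 near 0.5, cultures sampled hourly, flipped fraction per protease–substrate barcode pair counted by paired-end Illumina sequencing.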

| Variant | area with substrate EALYFQS | area with substrate ECLYFQS | area with substrate EDLYFQS | area with substrate EELYFQS | area with substrate EGLYFQS | area with substrate EILYFQS | area with substrate EMLYFQS | area with substrate EPLYFQS | area with substrate EQLYFQS | area with substrate ERLYFQS | area with substrate ESLYFQS | area with substrate EVLYFQS | area with substrate EWLYFQS | area with substrate EYLYFQS | area with substrate EKLYFQS | area with substrate ELLYFQS | area with substrate ETLYFQS | area with substrate EFLYFQS | area with substrate EHLYFQS |
| --- | --- | --- | --- | --- | --- | --- | --- | --- | --- | --- | --- | --- | --- | --- | --- | --- | --- | --- | --- |
| MGESLFKGPRDYNPISSSICHLTNESDGHTTSLYGIGFGPFIITNKHLFRRNNGTLVVQSLHGVFKVKDTTTLQQHLVDGRDMIIIRMPKDFPPFPQKLKFREPQREERICLVTTNFQTKSMSSMVSDTSCTFPSGDGIFWKHWIQTKDGQCGSPLVSTRDGFIVGIPSASNFTNTNNYFTSVPKNFMELLTNQEAQQWVSGWRLNADSVLWGGHKVFMVKPEEPFQPVKEATQL [H168P] | 0.0507 | 0.0576 | 0.0443 | 0.0466 | 0.0485 | 0.0569 | 0.0669 | 0.058 | 0.0612 | 0.0531 | 0.06 | 0.0355 | 0.0518 | 0.0694 |  |  |  |  |  |
| MGESLFKGPRDYNPISSSICHLTNESDGHTTSLYGIGFGPFIITNKHLFRRNNGTLVVQSLHGVFKVKDTTTLQQHLVDGRDMIIIRMPKDFPPFPQKLKFREPQREERICLVTTNFQTKSMSSMVSDTSCTFPSGDGIFWKHWIQTKDGQCGSPLVSTRDGFIVGIHSASNFTNTNNYFTSVPKNFMELLTNQEAQQWVSGWRLNMDSVLWGGHKVFMVKPEEPFQPVKEATQL [A207M] | 0.113 | 0.0885 |  | 0.121 | 0.0668 | 0.109 |  |  | 0.0986 |  | 0.0945 | 0.135 | 0.106 |  | 0.128 |  |  |  |  |
| MGESLFKGPRDYNPISSSICHLTNESDGHTTSLYGIGFGPFIITNKHLFRRNNGTLVVQSLHGVFSVKDTTTLQQHLVDGRDMIIIRMPKDFPPFPQKLKFREPQREERICLVTTNFQTKSMSSMVSDTSCTFPSGDGIFWKHWIQTKDGQCGSPLVSTRDGFIVGIHSASNFTNTNNYFTSVPKNFMELLTNQEAQQWVSGWRLNADSVLWGGHKVFMVKPEEPFQPVKEATQL [K66S] | 0.121 | 0.208 | 0.129 | 0.14 | 0.0929 | 0.097 | 0.106 |  | 0.119 |  |  | 0.0828 |  | 0.117 | 0.108 | 0.0683 | 0.117 |  |  |
| MGESLFKGPRDYNPLSSSICHLTNESDGHTTSLYGIGFGPFIITNKHLFRRNNGTLVVQSLHGVFKVKDTTTLQQHLVDGRDMIIIRMPKDFPPFPQKLKFREPQREERICLVTTNFQTKSMSSMVSDTSCTFPSGDGIFWKHWIQTKDGQCGSPLVSTRDGFIVGIHSASNFTNTNNYFTSVPKNFMELLTNQEAQQWVSGWRLNADSVLWGGHKVFMVKPEEPFQPVKEATQL [I15L] | 0.14 | 0.105 | 0.121 | 0.125 | 0.111 | 0.0982 | 0.107 |  | 0.0736 | 0.0946 | 0.0973 | 0.114 | 0.0661 | 0.11 | 0.0895 | 0.0981 | 0.117 | 0.148 | 0.0972 |
| MGESLFKGPRDYNPISSSICHLTNESDGHTTSLYGIGFGPFIITNKHLFRRNNGTRVVQSLHGVFKVKDTTTLQQHLVDGRDMIIIRMPKDFPPFPQKLKFREPQREERICLVTTNFQTKSMSSMVSDTSCTFPSGDGIFWKHWIQTKDGQCGSPLVSTRDGFIVGIHSASNFTNTNNYFTSVPKNFMELLTNQEAQQWVSGWRLNADSVLWGGHKVFMVKPEEPFQPVKEATQL [L56R] | 0.0447 | 0.0485 | 0.02 | 0.0274 | 0.0589 | 0.0461 | 0.0243 |  |  |  | 0.0323 |  |  |  | 0.0493 |  | 0.0514 | 0.044 | 0.0426 |
| MGESLFKGPRDYNPISSSICHLTNESDGHTTSLYGIGFGPFIITNKHLFRRNNGTLVVQSLHGVFKVKDTTTLQQHLVDVRDMIIIRMPKDFPPFPQKLKFREPQREERICLVTTNFQTKSMSSMVSDTSCTFPSGDGIFWKHWIQTKDGQCGSPLVSTRDGFIVGIHSASNFTNTNNYFTSVPKNFMELLTNQEAQQWVSGWRLNADSVLWGGHKVFMVKPEEPFQPVKEATQL [G80V] | 0.123 | 0.0938 | 0.123 | 0.141 | 0.102 | 0.0902 | 0.107 | 0.117 | 0.142 | 0.1 | 0.104 | 0.0807 | 0.089 | 0.111 | 0.11 |  | 0.101 |  | 0.119 |
| MGYSLFKGPRDYNPISSSICHLTNESDGHTTSLYGIGFGPFIITNKHLFRRNNGTLVVQSLHGVFKVKDTTTLQQHLVDGRDMIIIRMPKDFPPFPQKLKFREPQREERICLVTTNFQTKSMSSMVSDTSCTFPSGDGIFWKHWIQTKDGQCGSPLVSTRDGFIVGIHSASNFTNTNNYFTSVPKNFMELLTNQEAQQWVSGWRLNADSVLWGGHKVFMVKPEEPFQPVKEATQL [E3Y] | 0.136 | 0.124 | 0.16 |  |  |  | 0.133 | 0.0266 | 0.115 | 0.112 | 0.133 | 0.134 |  |  | 0.167 |  |  | 0.111 |  |
| MGESLFKGPRDYNPISSSICHLTNESDGHTTSLYGIGFGPFIITNKHLFRRNNGTLVVQSLHGVFKVKDTTTLQQHLVDGRDMIIIRMPKDFPPFPQKLKFREPQREERICLVTTNFQTCSMSSMVSDTSCTFPSGDGIFWKHWIQTKDGQCGSPLVSTRDGFIVGIHSASNFTNTNNYFTSVPKNFMELLTNQEAQQWVSGWRLNADSVLWGGHKVFMVKPEEPFQPVKEATQL [K120C] | 0.112 | 0.0563 |  | 0.101 |  | 0.0993 | 0.103 | 0.114 |  | 0.0909 | 0.0999 | 0.0919 | 0.081 |  | 0.0967 |  | 0.107 |  | 0.0816 |
| MGESLFKGPRDYNPISSSICHLTNESDGHTTSLYGIGFGPFIITNKHLFRRNNGTLVVQSLHGVFKVKDTTTLQQHLVDGRDMIIIRMPKDFPPFPQKLKFREPQREERICLVTTNFQTKSMSSMVSDTSCTFPSGDGIFWKHWTQTKDGQCGSPLVSTRDGFIVGIHSASNFTNTNNYFTSVPKNFMELLTNQEAQQWVSGWRLNADSVLWGGHKVFMVKPEEPFQPVKEATQL [I145T] | 0.102 | 0.138 | 0.182 | 0.079 | 0.104 | 0.121 | 0.119 | 0.176 | 0.113 | 0.0852 | 0.0949 | 0.101 | 0.079 | 0.115 | 0.109 | 0.0835 | 0.123 | 0.162 | 0.109 |
